About 6,000 (1.7%) of roughly 360,000 compounds were called active. Inconclusive results, whose numbers are uncertain, are shown with a selection of clear calls. The call rests on the fitted dose curve; in most records, active means well fitted cell-killing curve with a large enough effect; inconclusive means small, poorly fitted or top-dose-only effect, or effect the other way; inactive means flat fitted curve, though single readings scatter. No potency is given beside an inconclusive call; the fits are too rough.
Experiment: qHTS for induction of synthetic lethality in tumor cells producing 2HG: qHTS for the HT-1080-NT fibrosarcoma cell line; further: nearly all actives have a fitted effect of over 55% in size
Conditions: HT-1080-NT fibrosarcoma viability, CellTiter-Glo ATP luminescence, 48 h; activity, negative = less viability: at 46.1 µM (top of the series)
Text: Unbiased genomic sequencing for 22 glioma genomes found recurrent mutation of IDH1 on chromosome 2q33, a gene encoding the cytosolic isoform of IDH1 associated with the tricarboxylic acid cycle (TCA) that catalyzes the oxidative decarboxylation of isocitrate, yielding alpha-ketoglutarate and CO2 via NADP+ to NADPH conversion. Subsequent studies confirmed the recurrent IDH mutations in up to 70% of secondary gliomas and in 10% of AML cases. In addition, the somatic mutation of cancer-associated IDH1 is a point mutation resulting in various amino-acid substituents at Arginine132 (IDH1 R132), a key residue found in the enzyme's active site that when mutated, results in the loss-of-function in metabolizing isocitrate but confers a gain-of-function to produce the oncometabolite 2-hydroxyglutarate (2HG). This in effect defines IDH1 as an oncogene and provides an extraordinary opportunity to discover chemical probes against mutant IDH1 that may translate into much needed new therapies for glioma and AML patients.
This assay aims to perform a synthetic lethal screen for chemical probes specific for 2HG-producing tumor cells using matched paired cell lines (1) HT-1080-NT fibrosarcoma cell line that overproduces 2HG and (2) HT-1080-IDH1KD cell line which has IDH1 expression knocked-down. Desirable compounds are toxic to the NT fibrosarcoma cells but not to the IDH1KD cell line. The data in this AID corresponds to the results of the qHTS against the HT-1080-NT fibrosarcoma cell line.
[1] Dang L, Jin S, Su SM. IDH mutations in glioma and acute myeloid leukemia. Trends of Mol Med. 2010; 16(9): 387-97.
[2] Dang L et al. Cancer-associated IDH1 mutations produce 2-hydroxyglutarate. Nature. 2010; 465(7300):966.
NIH Molecular Libraries Probe Production Centers Network [MLPCN]
NIH Chemical Genomics Center [NCGC]
Assay Submitter (PI): Lenny Dang Ph.D., Agios Pharmaceuticals
Suspensions of trypsinized HT-1080-NT cells were dispensed into white, tissue culture-treated, solid 1536-well plates at 5uL/well (750 cells/well final concentration) in RPMI medium supplemented with 5% FBS. Plates were incubated at 37 degrees C for 2 hours, after which 23 nL of compounds or DMSO were delivered to each well using a pin tool. Plates were then incubated at 37 degrees C for an additional 48 hours. CellTiter-Glo viability reagent (Promega) was dispensed into wells (2.5uL/well) and incubated at room temperature for 10 minutes. The plates were measured on a PerkinElmer ViewLux plate reader for luminescent signal (clear filter, 1 sec exp). DMSO-treated control wells and media-only (no cells) control wells were used to normalize %Activity of identified toxic compounds; DMSO-treated wells corresponded to 0%Activity (100% viability), while media-only controls were used to normalize 100%Activity (0% viability).
Concentration-response curves were fitted to the signals arising from the resulting luminescence. The concentration-effect curves were then classified based on curve quality (r2), response magnitude and degree of measured activity, and compounds were subsequently categorized based on their curve class.
Potency means the concentration at half of the fitted maximal effect; tags describe the fitted curve by direction and shape.

SMILES | Potency | activity, negative = less viability
CN1CC(C(=O)c2ccc(Cl)cc2)C(c2ccc(Cl)cc2Cl)C1 (centres undefined) | inconclusive [cytotoxic, partial curve] | 
COC(=O)C12OCC34C(CC5C(C)=C(O)C(=O)CC5(C)C3C(O)C1O)OC(=O)C(OC(=O)/C=C(\C)C(C)C)C24 (centres undefined) | inconclusive [cytotoxic, full curve] | 
CC(C)COC(=O)n1c(=O)oc2cc(S(=O)(=O)N3CCCCC3)ccc21 | inconclusive [cytotoxic, single point] | 
Cc1ccc(N2C(=O)NC(=O)/C(=C\c3cc(C)n(-c4sc5c(c4C#N)CCCC5)c3C)C2=O)cc1 | inconclusive [cytotoxic, single point] | 
COc1ccc(C(=O)C23CN4CN(CN(C4)C2)C3)cc1 | inconclusive [rising, single point] | 
CCOC(=O)[C@]12Cc3ccccc3[C@H]1N(Cc1ccccc1)C(=O)c1cc(OC)ccc12 | inconclusive [cytotoxic, single point] | 
OC1(c2ccc(F)cc2)CC2CCC(C1)N2Cc1nnnn1C1CCCCC1 (centres undefined) |  | inactive: -15.2%
COc1cccc(CN2CCNCC2)c1OC | inconclusive [rising, partial curve] | 
C=CCn1c(O)c(/C(C)=N/N2CCCCC2)c(=O)[nH]c1=O |  | inactive: 13.7%
COC(=O)C1=C(c2cc3ccccc3o2)C[C@@H]2CC[C@H]1N2C(=O)NCc1ccc(C(F)(F)F)cc1 | active: 20.6 µM | 
Cc1ccc2c(c1N)C(=O)c1ccccc1C2=O | inconclusive [cytotoxic, single point] | 
O=c1[nH]c(=O)n(Cc2ccc(F)cc2)c(O)c1/C=N/Nc1ccccc1 | active: 2.31 µM | 
COc1ccc(-n2nnnc2C(CCc2ccccc2)N2CCC(n3c(=O)[nH]c4ccccc43)CC2)cc1 (centres undefined) | active: 16.4 µM | 
CCC(C)N1CCN(C(=O)Cc2ccccc2)CC1 (centres undefined) |  | inactive: 4.55%
O=C(/C=C/C=C/c1ccccc1)CC1(O)C(=O)Nc2ccccc21 (centres undefined) | inconclusive [cytotoxic, single point] | 
C[C@]12CC[C@H](O)C[C@H]1CC[C@@H]1[C@@H]2CC[C@]2(C)[C@@H](C3=CC(=O)OC3)CC[C@]12O | active: 0.517 µM | 
CC(C)C[C@H]1C(=O)N2CCC[C@H]2[C@]2(O)O[C@](NC(=O)C3C=C4c5cccc6[nH]c(Br)c(c56)C[C@H]4N(C)C3)(C(C)C)C(=O)N12 (some centres undefined) | inconclusive [cytotoxic, partial curve] | 
COc1ccc(C2=NCC(=O)N(CC(=O)NCc3ccco3)c3sc4c(c32)CCCC4)cc1 | inconclusive [cytotoxic, single point] | 
Cc1ccc(C)c(NP(=O)(Oc2ccccc2)Oc2ccccc2)c1 |  | inconclusive: -31.3% [cytotoxic]
Cc1ccc(O)c([C@H](CCN(C(C)C)C(C)C)c2ccccc2)c1 | inconclusive [cytotoxic, single point] | 
COc1cc2c(cc1OC)C1C(=O)c3ccc4c(c3OC1CO2)CC(C(C)C)O4 (centres undefined) | inconclusive [cytotoxic, full curve, poor fit] | 
NC1(C(=O)O)CCCc2ccc(N(CCCl)CCCl)cc21 (centres undefined) |  | inactive: 1.8%

SMILES | Potency | activity, negative = less viability
Cc1ccc(-n2cc(CNC(C)Cc3cnccn3)c(-c3cccc(C)c3)n2)cc1 (centres undefined) | inconclusive [cytotoxic, single point] | 
CC(=NCc1ccc(F)cc1)c1c(O)n(C)c(=O)n(C)c1=O |  | inactive: -0.109%
Cc1[nH]c2ccc(OC(F)(F)F)cc2c1CCNCc1cccc([N+](=O)[O-])c1 | active: 14.6 µM | 
CCCCn1nnnc1C(c1ccccc1)N1CCC2(CC1)C(=O)NCN2c1ccccc1 (centres undefined) |  | inconclusive: -31.9% [cytotoxic]
C[C@]12CCC3C(CCC4=CC(O)CC[C@@]43/C=N/O)C1(O)CCC2C1=CC(=O)OC1 (some centres undefined) | active: 3.26 µM | 
CN(Cc1cccc(-c2cccnc2)c1)C(=O)Oc1ccc([N+](=O)[O-])cc1 | inconclusive [cytotoxic, full curve, poor fit] | 
CCN(CC)C(=O)c1ccc(NC(=O)Nc2ccccc2F)cc1 | active: 7.31 µM | 
C[C@H]1CCCC(=O)CCCCCc2cc(O)cc(O)c2C(=O)O1 | inconclusive [cytotoxic, single point] | 
Cc1cc(C(=O)OCC(=O)Nc2ccc(F)cc2)c(C)n1C1CC1 |  | inactive: -0.764%
CCOC(=O)c1c(C)n(Cc2ccccc2)c2ccc(OCC(O)CNC(C)(C)C)cc12 (centres undefined) | inconclusive [cytotoxic, single point] | 
COc1cc([N+](=O)[O-])c2ncccc2c1[N+](=O)[O-] | active: 14.6 µM | 
Cc1nn(Cc2ccccc2)c(C)c1C(=O)OCC(=O)Nc1cccc(S(N)(=O)=O)c1 |  | inactive: -4.82%
COc1cccc(C(c2nnnn2Cc2ccccc2)N2CCC(n3c(=O)[nH]c4ccccc43)CC2)c1OC (centres undefined) | active: 20.6 µM | 
COc1ccccc1N1CCN(Cc2c[nH]c3ccccc23)CC1 | inconclusive [cytotoxic, partial curve] | 
CCOC(=O)c1ccc(N=C(c2ccccc2)c2c(O)n(C)c(=O)n(C)c2=O)cc1 | inconclusive [cytotoxic, full curve] | 
CCC(c1nnnn1-c1ccc2c(c1)OCCO2)N1CCC(n2c(=O)[nH]c3ccccc32)CC1 (centres undefined) | inconclusive [cytotoxic, single point] | 
O=C(NCC1=C(c2cccc3ccccc23)C[C@@H]2CC[C@H]1N2Cc1ccco1)c1ccc([N+](=O)[O-])cc1 | inconclusive [cytotoxic, single point] | 
Clc1ccc(COC(Cn2ccnc2)c2ccc(Cl)cc2Cl)cc1 (centres undefined) | inconclusive [cytotoxic, single point] | 
COc1ccc(C(=O)N/N=C/C23CC[C@@H](O)CC2(O)CC[C@@H]2[C@@H]3CCC3(C)C(C4=CC(=O)OC4)CCC23O)cc1 (some centres undefined) | inconclusive [cytotoxic, single point] | 
CN(C)C=C1C(=O)N(C2CCCCC2)C(=O)N(C2CCCCC2)C1=O | inconclusive [cytotoxic, single point] | 
CC12CC[C@H]3[C@@H](CCC4(O)C[C@H](O)CCC34/C=N/NC(=O)c3ccccc3O)C1(O)CCC2C1=CC(=O)OC1 (some centres undefined) | inconclusive [cytotoxic, partial curve, poor fit] | 
CCOC(=O)[C@]12Cc3cc(OC)ccc3[C@H]1N(CC(=O)OC)C(=O)c1cc(OC)ccc12 | inconclusive [cytotoxic, single point] | 

SMILES | Potency | activity, negative = less viability
COc1ccc(CN(CCc2c[nH]c3ccccc23)Cc2ccc(OC)cc2)cc1 | inconclusive [cytotoxic, single point] | 
O=C(CCN1CCOCC1)NCC(=O)Nc1ccc(Br)cc1C(=O)c1ccccc1 |  | inactive: -13.3%
CN(C)C(=O)Oc1ccc(OCc2nc3ccccc3[nH]2)cc1 | active: 7.31 µM | 
CCCc1nnc(NC(=O)CCC(=O)N2CCN(CCOC(c3ccccc3)c3ccccc3)CC2)s1 |  | inactive: -1.58%
CN(C)c1ccc(-[n+]2c(-c3ccccc3)cc(-c3ccccc3)cc2-c2ccccc2)cc1 | active: 10.3 µM | 
O=P(N1CC1)(N1CC1)N1CCc2ccccc21 |  | inconclusive: 7.61% [cytotoxic]
CCc1ccc(NP(=O)(Oc2ccccc2F)Oc2ccccc2F)cc1 | active: 18.4 µM | 
C[C@@H]1O[C@@H](O[C@@H]2C=C3CCC4C(CC[C@]5(C)[C@@H](c6ccc(=O)oc6)CC[C@]45O)[C@@]3(C)CC2)[C@H](O)[C@H](O)[C@H]1O (some centres undefined) | active: 0.0073 µM | 
COC1C(O)C(C)OC(OC2CCC3(C=O)C(CCC4C3CCC3(C)C(C5=CC(=O)OC5)CCC43O)C2)C1O (centres undefined) | active: 0.206 µM | 
COC(=O)C1=C(c2cccc(OC)c2OC)C[C@@H]2CC[C@H]1N2C(=O)N1CCC(C)CC1 |  | inactive: 0.438%
O=C(COc1ccc(Cl)cc1)N(c1ccccc1Cl)C1CN2CCC1CC2 (centres undefined) | inconclusive [cytotoxic, single point] | 
Cc1ccc(NP(=O)(Oc2ccccc2F)Oc2ccccc2F)cc1 | inconclusive [cytotoxic, single point] | 
CCCCn1c(N)c(C(=O)OCC2CCCO2)c2nc3ccccc3nc21 (centres undefined) | inconclusive [cytotoxic, single point] | 
C=CCCC[C@@H]1OC(=O)CNC(=O)C([C@@H](C)CC)NC(=O)[C@@H]2CCCN2C(=O)C([C@@H](C)CC)OC(=O)[C@H](Cc2ccccc2)N(C)C(=O)[C@H](C(C)C)NC(=O)C1(C)C (some centres undefined) | inconclusive [cytotoxic, single point] | 
Cn1c(=O)cc(SCC(=O)N2CCC3(CC2)OCCO3)c2ccccc21 |  | inactive: -16.8%
CC(C)CC[C@@H](O)[C@](C)(O)C1CC[C@@]2(O)C3=CC(=O)[C@@H]4C[C@@H](O)[C@@H](O)C[C@]4(C)C3CC[C@]12C (some centres undefined) | inconclusive [rising, single point] | 
Cc1ccc(N)c([N+](=O)[O-])c1 | inconclusive [rising, full curve] | 
OC[C@H]1OC(O)C[C@@H](O)[C@@H]1O (some centres undefined) | inconclusive [rising, partial curve, poor fit] | 
O=C1NC(=O)C2(CCCc3ccc(N(CCCl)CCCl)cc32)N1 (centres undefined) | inconclusive [cytotoxic, partial curve] | 
Cc1ccccc1CN1Cc2cnnn2-c2ccccc2C1C#N (centres undefined) | active: 8.2 µM | 
